Experimental data as given in publication PMC12102759.

B1: BCAR1 peptide 627-642 (Breast cancer anti-estrogen resistance protein 1), 16-mer library wild type / YES SH3 (YES1 SH3 domain, residues 90-152) (parent)
chain 1: DKTSSIQSRPLPSPPK
chain 2: TGGVTIFVALYDYEARTTEDLSFKKGERFQIINNTEGDWWEARSIATGKNGYIPSNYVAPADS

Variants of: B1
Experiment: proteomic peptide phage display deep mutational scan (ProP-PD DMS): M13 P8 16-mer library selected against immobilised GST-tagged bait for four days (rounds), NGS of the eluted pools per day and pseudo-replica
Conditions: with YES SH3 (YES1 SH3 domain, residues 90-152); bait immobilised on MaxiSorp plates (10 µg), library pre-cleared on GST, 2 h binding at 4 °C, five washes; one round per day, days 1-4; value from days 2 and 3; keep out of graded; scale: average fractional NGS count over selection days 2 and 3

Row | Variant | screen value
1 | chain 1 S4W | 0.000108
2 | chain 1 S4H | 3.83e-05
3 | chain 1 S4L | 0.00047
4 | chain 1 S4V | 0.000316
5 | chain 1 S4P | 9.18e-05
6 | chain 1 S4K | 3.27e-05
7 | chain 1 S4D | 0.000464
8 | chain 1 S4Q | 4.46e-05
9 | chain 1 S4R | 4.43e-05
10 | chain 1 S4Y | 3.94e-05
11 | chain 1 S4A | 0.00993
12 | chain 1 S4E | 0.000568
13 | chain 1 S4M | 0.000501
14 | chain 1 S4N | 5.72e-05
15 | chain 1 S4G | 0.00308
16 | chain 1 S4F | 5.12e-05
17 | chain 1 S4I | 0.00137
18 | chain 1 P15Y | 0.00111
19 | chain 1 P15L | 0.000856
20 | chain 1 P15S | 0.000123
21 | chain 1 P15Q | 2.17e-05
22 | chain 1 P15E | 0
23 | chain 1 P15I | 0.000186
24 | chain 1 P15A | 0.00104

Row | Variant | screen value
25 | chain 1 P15G | 0.000213
26 | chain 1 P15R | 0.000562
27 | chain 1 P15F | 0.000215
28 | chain 1 P15T | 0.000142
29 | chain 1 P15H | 9.73e-05
30 | chain 1 P15D | 9.59e-05
31 | chain 1 P15V | 0.000431
32 | chain 1 P15W | 0.000725
33 | chain 1 P15N | 0
34 | chain 1 P15M | 0.000379
35 | chain 1 L11R | 0
36 | chain 1 L11M | 0.000292
37 | chain 1 L11A | 0
38 | chain 1 L11V | 2.1e-05
39 | chain 1 L11T | 1.47e-05
40 | chain 1 L11I | 0.000151
41 | chain 1 L11Y | 0
42 | chain 1 L11Q | 0
43 | chain 1 K2P | 0.00285
44 | chain 1 K2M | 0.00208
45 | chain 1 K2I | 0
46 | chain 1 K2Y | 6.55e-05
47 | chain 1 K2L | 0.000107
48 | chain 1 K2R | 0.000443

Row | Variant | screen value
49 | chain 1 K2N | 0.000395
50 | chain 1 K2W | 0.000884
51 | chain 1 K2F | 2.91e-05
52 | chain 1 K2G | 0.000637
53 | chain 1 K2A | 0.000246
54 | chain 1 K2H | 0.000112
55 | chain 1 K2D | 0.00115
56 | chain 1 K2V | 0.000276
57 | chain 1 K2S | 0.000197
58 | chain 1 K2Q | 0
59 | chain 1 P10Q | 0.000156
60 | chain 1 P10E | 0.00139
61 | chain 1 P10H | 0.000338
62 | chain 1 P10N | 0.000608
63 | chain 1 P10K | 0.000173
64 | chain 1 P10R | 4.16e-05
65 | chain 1 P10Y | 0.00167
66 | chain 1 P10M | 9.54e-05
67 | chain 1 P10I | 0.000192
68 | chain 1 P10D | 0.000127
69 | chain 1 P10F | 1.11e-05
70 | chain 1 P10A | 7.34e-05
71 | chain 1 P10T | 0.00136
72 | chain 1 P10V | 0.000766

Row | Variant | screen value
73 | chain 1 P10G | 0.000167
74 | chain 1 P10L | 0.000113
75 | chain 1 P10W | 7.38e-05
76 | chain 1 P10S | 0.000423
77 | chain 1 S13E | 1.39e-05
78 | chain 1 S13V | 0.000205
79 | chain 1 S13W | 2.81e-05
80 | chain 1 S13G | 1.66e-05
81 | chain 1 S13P | 0.000604
82 | chain 1 S13F | 7.9e-05
83 | chain 1 S13R | 6.91e-05
84 | chain 1 S13L | 8.91e-05
85 | chain 1 S13I | 0.000242
86 | chain 1 S13T | 0.0002
87 | chain 1 S13K | 0
88 | chain 1 S13D | 0.000107
89 | chain 1 S13A | 0.000178
90 | chain 1 S13N | 8.06e-05
91 | chain 1 S13Y | 3.84e-05
92 | chain 1 S13H | 4.93e-05
93 | chain 1 S13Q | 0.00017
94 | chain 1 S13M | 0.00055
95 | chain 1 K16D | 0.000335
96 | chain 1 K16V | 0.00239

Row | Variant | screen value
97 | chain 1 K16Q | 0.000527
98 | chain 1 K16P | 0.000355
99 | chain 1 K16I | 0.0012
100 | chain 1 K16M | 0.000291
101 | chain 1 K16L | 0.000447
102 | chain 1 K16Y | 0.000555
103 | chain 1 K16H | 0.00232
104 | chain 1 K16T | 0.000564
105 | chain 1 K16F | 0.000257
106 | chain 1 K16G | 0.000127
107 | chain 1 K16N | 0.000201
108 | chain 1 K16W | 0.00245
109 | chain 1 K16R | 9.53e-05
110 | chain 1 K16A | 0.00513
111 | chain 1 K16S | 0.00238
112 | chain 1 S8Y | 0
113 | chain 1 S8R | 0.000207
114 | chain 1 S8Q | 0.000529
115 | chain 1 S8E | 0.00106
116 | chain 1 S8P | 3.66e-05
117 | chain 1 S8H | 0.00267
118 | chain 1 S8V | 0.00011
119 | chain 1 S8F | 0.000348
120 | chain 1 S8L | 0.000598

Row | Variant | screen value
121 | chain 1 S8I | 0
122 | chain 1 S8G | 0.000536
123 | chain 1 S8N | 0.000152
124 | chain 1 S8T | 0.00252
125 | chain 1 S8W | 3.9e-05
126 | chain 1 S8M | 0.000166
127 | chain 1 S8D | 2.65e-05
128 | chain 1 S8A | 0.000955
129 | chain 1 P14K | 3.48e-05
130 | chain 1 P14L | 0.000953
131 | chain 1 P14I | 0.000174
132 | chain 1 P14S | 0.000485
133 | chain 1 P14H | 0.00219
134 | chain 1 P14G | 4.18e-05
135 | chain 1 P14Y | 5.98e-05
136 | chain 1 P14F | 0.000238
137 | chain 1 P14M | 0.00105
138 | chain 1 P14A | 0.000719
139 | chain 1 P14V | 4.27e-05
140 | chain 1 P14R | 3.2e-05
141 | chain 1 P14W | 0.000315
142 | chain 1 P14Q | 0.000368
143 | chain 1 P14T | 6.67e-05
144 | chain 1 P14D | 0.000125

Row | Variant | screen value
145 | chain 1 Q7M | 0.00032
146 | chain 1 Q7I | 8.26e-05
147 | chain 1 Q7G | 2.49e-05
148 | chain 1 Q7P | 0.000179
149 | chain 1 Q7E | 5.02e-05
150 | chain 1 Q7S | 5.25e-05
151 | chain 1 Q7H | 3.04e-05
152 | chain 1 Q7A | 0.000141
153 | chain 1 Q7V | 0.000181
154 | chain 1 Q7N | 0.00037
155 | chain 1 Q7Y | 0
156 | chain 1 Q7K | 8.33e-05
157 | chain 1 Q7T | 0.000294
158 | chain 1 Q7W | 0.000164
159 | chain 1 Q7R | 0
160 | chain 1 Q7F | 8.91e-05
161 | chain 1 Q7L | 0.000603
162 | chain 1 Q7D | 0.000285
163 | chain 1 P12F | 0
164 | chain 1 P12V | 0
165 | chain 1 P12Q | 0
166 | chain 1 P12E | 8.57e-06
167 | chain 1 P12N | 0
